In PubChem BioAssay AID624296 (National Center for Advancing Translational Sciences (NCATS), 2012):
The whole screen tested about 350,000 compounds, of which about 9,900 (2.8%) were called active. Inconclusive means that the source gave no clear call. Such entries were picked first, then a sample of the others. Calls follow the shape of the dose curve; as a rule, active = well fitted activation curve with a large enough effect; inconclusive = small, poorly fitted or top-dose-only effect; inactive = no such curve, though single readings can be large or run the other way. No potency is given beside an inconclusive call; the fits are too rough.

Experiment: A quantitative high throughput screen for small molecules that induce DNA re-replication in MCF 10a normal breast cells. Also: nearly all actives have a fitted effect of over 50% in size. As to activity, positive = re-replication: % of control where 0% means no effect.
Details: MCF 10A DNA re-replication, Hoechst nuclear intensity, 48 h; activity, positive = re-replication: at 46.1 µM (top of the series)
Potency is read from the fitted curve at half-maximal effect; tags tell the direction and shape of the fitted curve.

Compound	Potency	activity, positive = re-replication
COc1ccc(CCC(C)NCC2CCCCC2)cc1 (stereo not given)	inconclusive [activator, full curve, poor fit]	–
Cc1cc(C)nc(N(C#N)CN2C(=O)c3ccccc3S2(=O)=O)n1	inconclusive [activator, single point]	–
Cc1cccc2sc(NC(=O)c3ccc(NS(=O)(=O)c4cccs4)cc3)nc12	inconclusive [activator, single point]	–
COc1ccc2[nH]cc(CCNC(=O)Cc3ccc(F)cc3)c2c1	inconclusive [activator, single point]	–
COC(=O)c1ccc2c(=O)[nH]c(CSc3nnc(C(F)(F)F)n3C)nc2c1	–	inactive: -3.97%
COc1ccc(NC(=O)CSc2nc3nc(C)cc(C)c3c(=O)[nH]2)cc1	inconclusive [activator, single point]	–
COc1ccc(N)cc1-n1c(C)ccc1C	–	inactive: 4.45%
Cc1nnsc1C(=O)Nc1ccc(S(=O)(=O)N2CCC(C)CC2)cc1	–	inactive: 17.6%
CC(=O)CCC(=O)OCC(=O)Nc1ccc(SC(F)F)cc1	–	inactive: -4.94%
Cc1cccc(NC(=O)c2nc[nH]c2C(=O)N[C@@H](C)C(=O)OC(C)(C)C)c1	inconclusive [activator, single point]	–
COc1ccc(-c2csc(NCCn3c(C)nc4cc(C(F)(F)F)ccc43)n2)cc1	inconclusive [activator, single point]	–
CCOc1cc(NC(=O)c2ccco2)c(OCC)cc1NC(=O)c1cc(OC)c(OC)c(OC)c1	inconclusive [activator, single point]	–
Cc1cc(C)nc(SCC(=O)NNS(=O)(=O)c2ccc(C#N)cc2)n1	–	inactive: 0.492%
Cc1cc2c(c(/C=C/C(=O)c3ccccc3)c1)OC1(C=C2)Oc2ccccc2C(=O)N1C (stereo not given)	active: 5.62 µM	–
COc1ccc(-c2nc3ccccc3c(C(=O)Nc3ccc(S(=O)(=O)Nc4cc(C)on4)cc3)c2C)cc1	active: 18.4 µM	–
Cc1ccc(OCC(O)CNCc2ccccc2)cc1C (stereo not given)	–	inactive: 15.5%
COc1ccc2c(c1)CCc1c-2nc2ccccc2c1N1CCOCC1	active: 16.4 µM	–
Cc1ccc(Cn2c(C3CCCN3c3nc(-c4ccc(F)cc4)cs3)nc3cc(Cl)c(Cl)cc32)cc1 (stereo not given)	–	inactive: -8.44%
COc1ccc(/C=C2\CCC(C3CCCC3)C2=O)c(OC)c1OC (stereo not given)	inconclusive [activator, single point]	–
COc1cccc(NC(=O)c2sc3nc(N4CCOCC4)c4c(c3c2N)CCCC4)c1	active: 2.31 µM	–
CC1(C)Nc2cccc3cccc(c23)N1	inconclusive [activator, single point]	–
Cc1ccc(NC(=O)NC(=O)CN2C(=O)NC3(CCc4ccccc43)C2=O)c(C)c1 (stereo not given)	inconclusive [activator, single point]	–
CCOc1ccccc1/C=N/Nc1cc(C)nc2ccc(C)cc12	inconclusive [activator, partial curve, poor fit]	–

Compound	Potency	activity, positive = re-replication
Cn1c(N)c(C(=O)CSc2nnc(Cc3cccs3)n2C2CC2)c(=O)n(C)c1=O	–	inactive: -1.17%
CCOC(=O)c1nn(-c2ccc(OCC)cc2)c2nc(-c3ccco3)c(C#N)c(=O)n12	inconclusive [activator, partial curve, poor fit]	–
Cc1ccc(C2N(c3ccccc3)C(=S)N3CCCN23)cc1 (stereo not given)	inconclusive [activator, partial curve, poor fit]	–
Cc1nn(-c2ccccc2)c(C)c1NC(=O)COc1ccc2ccccc2c1	inconclusive [activator, single point]	–
CCC1(C)SC(N)=NN1C(C)=O (stereo not given)	inconclusive [activator, single point]	–
CN(c1ccccc1)S(=O)(=O)c1cc(C(=O)N2CCN(c3ccccn3)CC2)ccc1Cl	–	inactive: 7.42%
Cc1cc(C)cc(NS(=O)(=O)c2ccc3[nH]cc(C(=O)NCc4ccco4)c(=O)c3c2)c1	–	inactive: 7.3%
Nc1ccc2oc3ccccc3c2c1	inconclusive [activator, single point]	–
Cc1cc(C)n(CC(C)NC(=O)c2cc(COc3ccc(F)c(F)c3)on2)n1 (stereo not given)	inconclusive [activator, single point]	–
COC(=O)C1=C(C(=O)OC)[C@@H]2Nc3ccccc3[C@@]23C[C@@H](C(=O)OC)N(C(=O)NC2CCCCC2)C3=N1	–	inactive: 4.5%
Cc1ccc(Sc2cc(C(=O)NCCCN(C)C)c3ccccc3n2)cc1	inconclusive [activator, partial curve, poor fit]	–
Cn1c(=O)c(C(=O)COC(=O)c2cc(C3CC3)nc3ccccc23)c(N)n(Cc2ccccc2)c1=O	inconclusive [activator, single point]	–
COC(=O)c1sccc1NC(=O)c1cccs1	–	inactive: 14.2%
Cc1cc(NC(=O)CSc2nc(N)c(NC(=O)c3ccco3)c(=O)[nH]2)no1	–	inactive: -1.46%
O=c1ccc2ccc(Oc3ccc([N+](=O)[O-])cc3[N+](=O)[O-])cc2o1	inconclusive [activator, full curve, poor fit]	–
Cn1c(C2CCCCC2)nc2ccccc21	inconclusive [activator, partial curve, poor fit]	–
CN(C)C(=O)c1nc2ccccc2s1	inconclusive [activator, partial curve, poor fit]	–
CCOC(=O)N1CCN(CC(=O)Nc2c(C(=O)OC)[nH]c3ccccc23)CC1	active: 5.8 µM	–
COc1ccc(-c2ccc(C(c3c(C)[nH][nH]c3=O)c3c(C)[nH][nH]c3=O)o2)c([N+](=O)[O-])c1	active: 20.6 µM	–
CCC(C)(C)C1CCC(NC(=O)c2ccc(S(=O)(=O)N3CCOCC3)cc2)CC1 (stereo not given)	active: 6.51 µM	–
CC1(CN2CCC(n3c(=O)[nH]c4ccccc43)CC2)OCc2ccccc2-n2cccc21 (stereo not given)	inconclusive [activator, partial curve, poor fit]	–
CCCN(CC(=O)Nc1ccccc1OC)C(=O)Cc1ccc2c(c1)CCC2	–	inactive: -3.39%
